These results are taken from PubChem BioAssay AID463173 (ICCB-Longwood Screening Facility, Harvard Medical School, 2010).

Among all 52,000 compounds or so, about 1,700 (3.3%) were called active. Rule as the data show it: active = survival mostly below about 52% (no sharp cut-off); inactive = mostly above about 56%. The list shows a part of the results.

The test relates to Wild type. Briefly: growth inhibition of S. aureus wild type versus tarO mutant, primary screen, teichoic acid synthesis inhibitors, RN4220, OD600 (AID 463173). Conditions: S. aureus RN4220 wild type/DeltatarO growth, OD600, 18 h, hits give low values, screened at 18.75 µg/mL (by protocol).
Consider `CCC1CCc2nc3sc(C(=O)Nc4ccc(F)c(F)c4)c(N)c3cc2C1` (configuration not stated), for which the survival was inactive: 91%.

On to `COc1ccc(NC(=O)CSc2nc3c(c(=O)[nH]2)CCC3)cc1`, for which the survival is inactive: 80%.

With `CCOC(=O)c1c(C)c(C(=O)NCc2ccc(Cl)cc2)c(C)n1CC`, the survival was inactive: 93%.

In the case of `CCOc1ccccc1Nc1sc(C(=O)c2ccc(Cl)cc2)c(N)c1C(=O)NCCc1ccccc1`, the survival is inactive: 87%.

In the case of `Brc1ccc(CN2CCc3nc(N4CCN(c5ncccn5)CC4)ncc3C2)cc1`, the survival was inactive: 65%.

Turning to `O=C(Cn1c(=O)n(CCc2ccccc2)c(=O)c2c3c(sc21)CCCC3)Nc1ccc(F)c(F)c1`, the survival was inactive: 98%.

Take `CCCc1nnc(NC(=O)Cc2coc3ccc(C)cc23)s1`: the survival was inactive: 87%.

For `Cc1ccccc1NC(=O)CSc1nc2ccccc2c2nc(CCn3c(C)nc4ccccc43)nn12`, the survival was inactive: 65%.

As for `N#CCCCn1c(O)c(N=NC(=O)C2COc3ccccc3O2)c2ccccc21` (configuration not stated), the survival is inactive: 104%.

For the molecule `COc1ccc(NCc2cc3ccc(OC)cc3n(CC(=O)Nc3cccc(OC)c3)c2=O)cc1`, the survival is inactive: 110%.

Take `Cc1ccc(CNC(=O)c2cn(C)c3ccc(S(=O)(=O)N4CCOCC4)cc3c2=O)cc1`: the survival was inactive: 134%.

With `COc1ccccc1N1CCN(C(=O)c2cc3c(=O)oc4ccc(C)cc4c3s2)CC1`, the survival is inactive: 115%.

On to `CCOc1ccc(-c2nc(CNC(=O)Nc3ccccc3)c(C)o2)cc1`, for which the survival is inactive: 99%.

For the molecule `COc1ccc(OC)c(S(=O)(=O)Nc2cccc(-c3ccc(N4CCCCCC4)nn3)c2)c1`, the survival is inactive: 81%.

For the molecule `CCn1c(C(=O)N2CCC(C(=O)NCCCOC)CC2)cc2sccc21`, the survival is inactive: 83%.

With `COc1cc(NC(=O)c2nn(-c3ccc(F)cc3)c(=O)n(C)c2=O)cc(OC)c1OC`, the survival was inactive: 140%.

Take `CC1Cc2ccccc2N1C(=O)CSc1nccc(=O)[nH]1` (configuration not stated): the survival is inactive: 111%.

Take `O=C1CCCc2c1cc(C(=O)N1CCOCC1)c(=O)n2-c1ccccc1`: the survival is inactive: 105%.

Consider `Cc1cc(C)c(/C=C/c2onc(C)c2S(=O)(=O)N2CCC(C(=O)Nc3ccc(Cl)cc3C)CC2)c(C)c1`, for which the survival is inactive: 74%.

Regarding `O=C(COCc1cc(-c2cccs2)on1)NCc1cccc(Cl)c1`, the survival is inactive: 121%.

In the case of `Cn1nnc2cc(C(=O)Nc3cccnc3)ccc21`, the survival was inactive: 107%.

On to `Cc1cn(S(=O)(=O)c2ccc(F)c(Cl)c2)cn1`, for which the survival is inactive: 74%.

Regarding `Cc1ccccc1NC(=O)c1c(NC(=O)C(F)(F)F)sc2c1CCCCC2`, the survival is active: 1%.

As for `Cc1ccc(C(=O)c2sc(Nc3ccc(F)cc3)nc2N)c(C)c1`, the survival was inactive: 73%.

In the case of `Cc1ccc(C(=O)NC2CC3CCCC(C2)N3C(=O)NC2CCCCC2)cc1` (configuration not stated), the survival was inactive: 101%.

Regarding `Cc1cc(=O)n2c([nH]c3ccccc32)c1C(=O)O`, the survival is inactive: 106%.

With `COc1ccc(CN(C(=O)c2ccc(CN3CCOCC3)o2)C(C(=O)NCC2CCCO2)c2ccc(F)cc2)cc1` (configuration not stated), the survival was inactive: 103%.

In the case of `CC1=C(c2ccc(C)cc2)S(=O)(=O)N(Cc2ccc(C(=O)NCc3ccccc3F)cc2)C1=O`, the survival is inactive: 89%.

`O=C(NC1CCCCC1)C(c1ccco1)N(Cc1ccccc1)C(=O)Cn1nnc2ccccc21` (configuration not stated): the survival was inactive: 110%.

In the case of `O=C1CCCc2[nH]c(=O)c(-c3nc(-c4cccc([N+](=O)[O-])c4)cs3)cc21`, the survival is inactive: 69%.

Consider `COc1ccc(-c2nc(CNC(=O)NC3CCCCC3)c(C)o2)c(OC)c1`, for which the survival was inactive: 67%.

With `Cc1ccc2c(c1)C(C)(c1ccccc1)CC(C)(C)N2C(=O)c1ccc(F)cc1` (configuration not stated), the survival was active: -2%.

Consider `CC(=O)c1ccc(NC(=O)Cn2c(=O)oc3cc(S(=O)(=O)N4CCCCC4)ccc32)cc1`, for which the survival was inactive: 86%.

As to `CCOC(=O)c1cc2c(=O)n3ccccc3nc2n(Cc2ccco2)c1=NC(=O)c1ccc(F)cc1`, the survival was inactive: 79%.

Take `O=C(CCCn1c(=O)[nH]c2ccccc2c1=O)N1CCN(c2ccccc2)CC1`: the survival is inactive: 135%.

Consider `O=S(=O)(NCCc1cn2ccsc2n1)c1ccc(Cl)cc1`, for which the survival is inactive: 129%.

`O=C(CN1C(=O)COc2ccc(S(=O)(=O)N3CCOCC3)cc21)N1CCN(c2ccc(Cl)cc2)CC1`: the survival is inactive: 81%.

With `CCCCCCc1cc2cc(-c3cn4c(n3)sc3cc(OC)ccc34)c(=O)oc2cc1O`, the survival was inactive: 87%.

For the molecule `Cc1ccccc1C(=O)n1nc(-c2cccnc2)nc1NCc1ccc(F)cc1`, the survival was inactive: 84%.

As for `CCN(CCCNC(=O)Cn1ncc2c3ccccc3n(C)c2c1=O)c1cccc(C)c1`, the survival was inactive: 87%.

Consider `COc1cc(OC)c(NC(=O)Cn2cnc3c(nc4n3CCCCC4)c2=O)cc1Cl`, for which the survival is inactive: 59%.

Regarding `O=C(NCCN1CCCC1)c1ccco1`, the survival is inactive: 95%.

On to `O=C(Nc1cccc(Cl)c1)c1cc(S(=O)(=O)N2CCC3(CC2)OCCO3)ccc1F`, for which the survival is inactive: 121%.

As to `Cc1nc(SCC(N)=O)c2c3c(sc2n1)CCCC3`, the survival was inactive: 90%.

Regarding `CCOC(=O)c1ccccc1NC(=O)COc1cc(=O)n(CC)c2ccccc12`, the survival is inactive: 63%.

For `Cc1cc(OCC(=O)Nc2nc3c(s2)CCCC3)cc(C)c1Cl`, the survival was inactive: 82%.

Turning to `Cc1ccc(-n2ncc3c(N4CCCCC4)ncnc32)cc1`, the survival is inactive: 76%.

For `Cc1cccc(C)c1NC(=O)Cn1c(=O)cc(C)c2c(C)nn(-c3cccc(Cl)c3C)c21`, the survival was inactive: 92%.

As for `COc1ccc(Cl)cc1NC(=O)c1sc2nc3c(cc2c1N)CN(C)CC3`, the survival was inactive: 81%.

On to `O=C(CCC1N=C2c3ccccc3N=C(SCc3ccc(Cl)cc3)N2C1=O)NC1CCCCC1` (configuration not stated), for which the survival was inactive: 71%.

For `CCOc1ccccc1NC(=O)Cn1c(=O)n(Cc2ccccc2)c(=O)c2c3c(sc21)CN(C(C)=O)CC3`, the survival is inactive: 84%.

As to `O=C(CN1CCN(C2CCCCC2)C(=O)C1=O)Nc1ccc(Cl)cc1`, the survival is inactive: 93%.

For `CC(C)CCN1C(=O)c2ccccc2CC1(C)C(=O)NC1CCCCC1` (configuration not stated), the survival was inactive: 96%.

Regarding `CCC(=O)Nc1ccccc1C(=O)OCc1cc(=O)n2cc(C)sc2n1`, the survival is inactive: 78%.

`O=C(NC1C2CC3CC(C2)CC1C3)c1cccnc1` (configuration not stated): the survival was inactive: 94%.

Take `COc1ccc(OC)c(NC(=O)Cn2c(CCC(=O)O)ccc2-c2ccccc2)c1`: the survival is inactive: 104%.

Turning to `COc1cc(C(C(=O)NC2CCCCC2)N(Cc2ccco2)C(=O)c2cnccn2)cc(OC)c1OC` (configuration not stated), the survival was inactive: 115%.
